Values joined by “and” are separate entries in the source; they are usually repeats but may differ in a detail not shown here. Identical values can stand only once. The inconclusive results got no clear call from the source; some entries with a clear call stand among them for comparison. Where the call is inconclusive, the potency comes from a doubtful curve fit. Active and inactive are the calls of the source. Unless noted, the call rests on the fitted dose curve; in most records, active means well fitted curve in the direction sought with a large enough effect in the repeat runs; inconclusive means weak or mixed curves; inactive means no such curve, though single readings can be large; an effect the other way counts as inactive or inconclusive.
Key:
[1] = target: Estrogen receptor beta (Homo sapiens) (UniProt Q92731); experiment: qHTS assay to identify small molecule antagonists of the estrogen receptor beta (ER-beta) signaling pathway (AID 1259378; active means well fitted inhibition curve with a large enough effect in the signal ratio in the repeat runs, not every such curve was filed as active; inconclusive means weak or mixed curves, or effect the other way; inactive means no such curve, though single readings can be large or run the other way; the % refers to the signal ratio; on activity, negative = inhibition: on the % scale 0 is the no-effect control and ±100 the full control effect); settings: ER-beta-UAS-bla HEK293T, beta-lactamase FRET ratio, 16 h; activity, negative = inhibition: at 92.4 µM (top of the series) unless noted
Summary of the method: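 Antagonist mode: compounds added to beta-lactamase reporter HEK293T ER-beta-UAS cells stimulated with E2 (1nM final), 16 hr at 37C. LiveBLAzer B/G FRET substrate, 2 hours room temperature, fluorescence read-out.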

[2] = qHTS assay to identify small molecule agonists of the androgen receptor (AR) signaling pathway in the presence of an antagonist - cell viability counter screen (AID 1259379); further: nearly all actives have a fitted effect of over 25% in size
Summary of the method: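 MDA-kb2 cells (MMTV-luciferase, AR/GR), 3,000/well, 5 h attachment, then 3.0 µM nilutamide (final) and compounds at 15 concentrations. Viability by CellTiter-Fluor fluorescence after 16 h at 37 °C, 0% CO2, in the reporter wells.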

[3] = qHTS assay to identify small molecule agonists or antagonists of the thyroid stimulating hormone receptor (TSHR) signaling pathway - wild type cell line counter screen (AID 1259384; calls by dose curve; on cAMP activity change: on the % scale 0 is the no-effect control and ±100 the full control effect); settings: HEK293 wild type, cAMP HTRF counter-screen; cAMP activity change: at 92.4 µM (top of the series), active compounds read high unless noted
Summary of the method: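 Counter screen in untransfected Hek293: compounds (15-point titration, triplicate) plus phosphodiesterase inhibitor Ro20-1724 added after 18 h plating; 30 min RT. Intracellular cAMP via competitive d2/cryptate immunoassay, 1 h incubation.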

[4] = target: Thyrotropin receptor (Homo sapiens) (UniProt P16473); experiment: qHTS assay to identify small molecule antagonists of the thyroid stimulating hormone receptor (TSHR) signaling pathway (AID 1259385; calls by dose curve; on activity change, negative = inhibition: on the % scale 0 is the no-effect control and ±100 the full control effect; on all read-outs here: nearly all actives have a fitted effect of over 20% in size); settings: TSHR-HEK293 cAMP HTRF, TSH-stimulated antagonist mode; for Potency: activity change, negative = inhibition: at 92.4 µM (top of the series) unless noted
Summary of the method: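 Antagonist mode: compound-treated TSHR-expressing HEK293 cells were stimulated with 1.5 ng/mL TSH (final) in presence of Ro20-1724 for 30 min at RT. HTRF cAMP detection after 1 h; each compound tested at 15 concentrations, triplicate.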

[5] = qHTS assay to identify small molecule agonists of the estrogen receptor alpha (ER-alpha) signaling pathway in the presence of an antagonist - cell viability counter screen (AID 1259386);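 further: cells exposed to compounds for 22 h at 37 °C before the viability read; nearly all actives have a fitted effect of over 30% in size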
Summary of the method: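 Cell viability in VM7Luc4E2 cells (endogenous full-length ER-alpha) measured by CellTiter-Fluor fluorescence in the same wells as the luciferase screen. Cells pre-cultured 5 days in charcoal-stripped serum, then treated 22 h with compounds at 15 concentrations plus 10.0nM ICI-182,780.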

[6] = target: Progesterone receptor (Homo sapiens) (UniProt P06401); experiment: qHTS assay to identify small molecule agonists of the progesterone receptor (PR) signaling pathway (AID 1346784; calls by dose curve; further: nearly all actives have a fitted effect of over 30% in size; on activation: on the % scale 0 is the no-effect control and ±100 the full control effect); settings: PR-UAS-bla HEK293T, beta-lactamase FRET ratio, 16 h; activation: at 92.4 µM (top of the series) unless noted
Summary of the method: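 The screen uses PR-UAS-bla HEK 293T cells in charcoal-stripped serum (2%). Compounds are applied for 16 hr at 37C after a 6 hr pre-incubation, and reporter activity is detected with a FRET beta-lactamase substrate after 2 hr at room temperature.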

[7] = qHTS assay to identify small molecule antagonists of the estrogen receptor beta (ER-beta) signaling pathway - cell viability counter screen (AID 1259382); further: nearly all actives have a fitted effect of over 55% in size
Summary of the method: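 ER-beta-UAS-bla HEK293T cells in 2% charcoal-stripped FBS medium, treated with compound plus 1 nM 17-beta-estradiol for 16 h at 37C. Viability read by CellTiter-Glo luminescence after 30 min at room temperature in the same wells.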

[8] = qHTS assay to identify small molecule agonists of the estrogen receptor beta (ER-beta) signaling pathway - cell viability counter screen (AID 1259380); further: nearly all actives have a fitted effect of over 30% in size
Summary of the method: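 ER-beta-UAS-bla HEK293T cells in medium with 2% charcoal-stripped FBS, pre-incubated 6 hr, then treated 16 hr at 37C. Cytotoxicity read in the same wells by CellTiter-Glo luminescence after 30 min at room temperature.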
Potency means the concentration at half of the fitted maximal effect; tags describe the fitted curve by direction and shape or compound fluorescence and quenching.

Chain of UniProt Q92731 (Q92731 whole entry, looked up): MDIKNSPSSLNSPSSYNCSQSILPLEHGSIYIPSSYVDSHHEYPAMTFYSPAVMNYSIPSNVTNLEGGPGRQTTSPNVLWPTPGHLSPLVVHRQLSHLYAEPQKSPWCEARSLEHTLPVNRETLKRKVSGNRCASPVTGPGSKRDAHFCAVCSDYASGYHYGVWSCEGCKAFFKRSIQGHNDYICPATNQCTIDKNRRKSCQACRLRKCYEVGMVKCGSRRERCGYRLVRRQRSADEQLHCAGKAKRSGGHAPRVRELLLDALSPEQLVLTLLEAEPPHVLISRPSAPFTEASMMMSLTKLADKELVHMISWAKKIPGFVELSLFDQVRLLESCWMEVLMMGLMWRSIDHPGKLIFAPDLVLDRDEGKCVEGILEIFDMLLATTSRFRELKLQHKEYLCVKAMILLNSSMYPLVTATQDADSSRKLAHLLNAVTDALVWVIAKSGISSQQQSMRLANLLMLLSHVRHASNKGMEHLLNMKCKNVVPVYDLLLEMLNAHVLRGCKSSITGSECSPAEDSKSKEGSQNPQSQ
Chain of UniProt P06401 (P06401 whole entry, looked up): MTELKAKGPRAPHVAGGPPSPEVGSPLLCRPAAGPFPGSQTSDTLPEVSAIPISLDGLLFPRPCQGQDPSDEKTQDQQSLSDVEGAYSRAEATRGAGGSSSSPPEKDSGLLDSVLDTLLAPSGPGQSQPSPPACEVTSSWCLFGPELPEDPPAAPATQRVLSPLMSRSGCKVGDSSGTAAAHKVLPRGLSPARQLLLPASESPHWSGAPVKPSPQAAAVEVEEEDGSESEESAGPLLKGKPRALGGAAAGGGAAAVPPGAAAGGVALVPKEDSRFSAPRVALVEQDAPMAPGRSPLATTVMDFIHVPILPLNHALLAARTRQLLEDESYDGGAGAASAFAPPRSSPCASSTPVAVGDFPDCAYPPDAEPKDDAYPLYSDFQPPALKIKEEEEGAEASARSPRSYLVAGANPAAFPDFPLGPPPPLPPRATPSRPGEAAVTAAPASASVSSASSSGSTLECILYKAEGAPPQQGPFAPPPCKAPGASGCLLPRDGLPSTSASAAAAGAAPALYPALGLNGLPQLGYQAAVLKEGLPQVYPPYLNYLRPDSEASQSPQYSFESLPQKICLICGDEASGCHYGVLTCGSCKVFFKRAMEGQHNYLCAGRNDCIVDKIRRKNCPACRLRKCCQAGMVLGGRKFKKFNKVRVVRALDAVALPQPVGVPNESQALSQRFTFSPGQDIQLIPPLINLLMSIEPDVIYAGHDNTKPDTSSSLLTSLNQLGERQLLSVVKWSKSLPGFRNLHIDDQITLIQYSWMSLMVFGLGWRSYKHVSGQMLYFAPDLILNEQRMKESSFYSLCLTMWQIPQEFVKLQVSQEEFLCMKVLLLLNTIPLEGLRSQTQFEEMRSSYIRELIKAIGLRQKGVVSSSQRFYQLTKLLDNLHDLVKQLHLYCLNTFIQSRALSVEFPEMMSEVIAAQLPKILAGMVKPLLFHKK
Chain of UniProt P16473 (P16473 whole entry, looked up): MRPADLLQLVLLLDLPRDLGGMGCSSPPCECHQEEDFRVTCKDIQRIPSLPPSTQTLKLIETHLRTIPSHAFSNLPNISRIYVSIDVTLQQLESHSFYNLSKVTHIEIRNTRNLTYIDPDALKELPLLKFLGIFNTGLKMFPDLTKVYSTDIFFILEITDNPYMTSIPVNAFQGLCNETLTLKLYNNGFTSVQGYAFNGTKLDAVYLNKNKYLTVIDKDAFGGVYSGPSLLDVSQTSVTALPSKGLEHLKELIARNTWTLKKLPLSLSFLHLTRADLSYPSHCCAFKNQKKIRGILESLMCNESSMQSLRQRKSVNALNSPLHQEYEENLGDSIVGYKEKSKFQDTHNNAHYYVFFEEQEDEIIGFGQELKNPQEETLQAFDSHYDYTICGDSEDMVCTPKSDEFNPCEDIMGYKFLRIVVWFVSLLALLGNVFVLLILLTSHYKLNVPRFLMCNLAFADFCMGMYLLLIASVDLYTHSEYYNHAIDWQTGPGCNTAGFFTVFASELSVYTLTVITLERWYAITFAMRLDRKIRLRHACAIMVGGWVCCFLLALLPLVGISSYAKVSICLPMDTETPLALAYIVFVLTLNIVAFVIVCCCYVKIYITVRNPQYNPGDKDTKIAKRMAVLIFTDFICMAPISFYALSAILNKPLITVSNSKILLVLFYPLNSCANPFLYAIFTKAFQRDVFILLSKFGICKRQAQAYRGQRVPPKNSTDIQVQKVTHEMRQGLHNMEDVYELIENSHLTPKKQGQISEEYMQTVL

## Cc1c(C(=O)O)c(O)cc2c1C(=O)c1c(O)c([C@@H]3O[C@H](CO)[C@@H](O)[C@H](O)[C@H]3O)c(O)c(O)c1C2=O
[1]
  Potency: inconclusive: 84.2 µM [cytotoxic, single point]
[2]
  Potency: inconclusive: 8.41 µM [cytotoxic, full curve]
[3]
  Potency: inconclusive: 37.6 µM and inconclusive: 34.4 µM
  cAMP activity change: inconclusive: -20.4% [at 42.5 µM, active compounds read high]
[4]
  Potency: inconclusive: 33.5 µM [falling, partial curve]
[4]; at 42.5 µM (top of the series)
  activity change, negative = inhibition: inconclusive: -7.01%
[4]; at 92.4 µM (top of the series)
  activity change, negative = inhibition: inconclusive: -12.9%
[5]
  Potency: active: 26.6 µM and active: 15.4 µM and active: 13.3 µM
[6]
  Potency: inconclusive: 75.1 µM [cytotoxic, single point]

## Cc1[nH]cnc1C[C@H]1CCc2c(C)c3ccccc3n2C1=O
[1]
  Potency: active: 29.9 µM
[2]
  Potency: inconclusive: 59.6 µM [cytotoxic, single point]
[7]
  Potency: inconclusive: 5.96 µM [cytotoxic, full curve]
[4]
  Potency: inconclusive: 53.1 µM [falling, single point]
[5]
  Potency: inconclusive: 47.4 µM [cytotoxic, partial curve]

## C=Cc1cccc(C)c1
[1]
  Potency: inactive
[2]
  Potency: inactive
[6]
  Potency: inconclusive: 24.1 µM [falling, full curve]

## CCCCN(CCCC)C(=S)SSC(=S)N(CCCC)CCCC
[1]
  activity, negative = inhibition: inconclusive: -40.9%
[2]
  Potency: inconclusive: 67.9 µM [cytotoxic, partial curve, poor fit]
[7]
  Potency: inconclusive: 48.1 µM [cytotoxic, partial curve]

## O=C1CCc2cc(OCCCCc3nnnn3C3CCCCC3)ccc2N1
[1]
  activity, negative = inhibition: inconclusive: -32.5% [at 42.5 µM]
[2]
  Potency: inactive
[5]
  Potency: inconclusive: 37.6 µM [cytotoxic, single point]

## CCCC/C=C/C=C\C=O
[1]
  activity, negative = inhibition: inconclusive: -26.6%
[8]
  Potency: inconclusive: 77 µM [cytotoxic, single point]

## COc1cc2ncnc(Nc3ccc(F)c(Cl)c3)c2cc1OCCCN1CCOCC1
[1]
  Potency: active: 7.5 µM
[2]
  Potency: inconclusive: 13.3 µM [cytotoxic, partial curve]
[7]
  Potency: inconclusive: 6.68 µM [cytotoxic, full curve]
[4]
  Potency: inactive
[6]
  Potency: inconclusive: 33.5 µM [cytotoxic, partial curve, poor fit]

## O[C@@H](CNC[C@H](O)[C@H]1CCc2cc(F)ccc2O1)[C@@H]1CCc2cc(F)ccc2O1
[1]
  Potency: active: 8.41 µM
[2]
  Potency: inconclusive: 33.5 µM [cytotoxic, single point]
[5]
  Potency: inactive
[6]
  activation: inconclusive: -11.4% [at 42.5 µM]

## O=Cc1ccc(O)c(O)c1O
[1]
  Potency: inconclusive: 7.5 µM [fluorescent, full curve]
[2]
  Potency: inconclusive: 29.8 µM [cytotoxic]
[7]
  Potency: inconclusive: 29.8 µM [cytotoxic]
[5]
  Potency: inconclusive: 15 µM [cytotoxic, partial curve]

## CCCCCCCCCCCC[N+](C)(C)CCCS(=O)(=O)[O-]
[1]
  activity, negative = inhibition: inconclusive: -40.3%
[8]
  Potency: inconclusive: 55.1 µM [cytotoxic, partial curve, poor fit]

## O=C1c2c(O)ccc(Nc3ccc(CCO)cc3)c2C(=O)c2c([N+](=O)[O-])ccc(O)c21
[1]
  activity, negative = inhibition: inconclusive: -41.9%
[2]
  Potency: active: 43.3 µM
[3]
  Potency: inconclusive: 54.5 µM [falling, partial curve]
[4]
  Potency: inconclusive: 48.6 µM [falling, partial curve]

## COC(=O)C1=C(C)NC(C)=C(C(=O)OCCN2CCN(C(c3ccccc3)c3ccccc3)CC2)C1c1cccc([N+](=O)[O-])c1 (stereo not drawn)
[1]
  Potency: inconclusive: 5.96 µM [inhibitor, full curve]
[2]
  Potency: inconclusive: 21.1 µM [cytotoxic, partial curve]
[4]
  Potency: inconclusive: 10.6 µM [falling, full curve]

## C=C(C)C(=O)OCCCCCCCCCC
[1]
  Potency: inconclusive: 69.1 µM [activator, single point]
[8]
  Potency: inactive

## OCCN1CCN(CCO)CC1
[1]
  Potency: inactive
[8]
  Potency: inactive

## CC(C)=CCOc1ccc(/C=C/C(=O)c2ccc(OCC=C(C)C)cc2OCC(=O)O)cc1
[1]
  Potency: inconclusive: 11.9 µM
[8]
  Potency: active: 5.96 µM
[7]
  Potency: inconclusive: 7.5 µM [cytotoxic, full curve]

## CCOc1cccc(-n2cc(C(=O)N3CCN(c4cc(C(=O)O)c5ccccc5c4)CC3)nc2-c2ccc(C)cc2)c1
[1]
  Potency: inconclusive: 65.5 µM [rising, partial curve, poor fit]
[8]
  Potency: active: 14.7 µM
[7]
  Potency: inconclusive: 23.2 µM [cytotoxic, partial curve]

## CCCCOC(=O)c1ccc(O)cc1
[1]
  activity, negative = inhibition: inconclusive: -34.6% [at 42.5 µM]
[8]
  Potency: inconclusive: 19.3 µM [cytotoxic, partial curve, poor fit]

## CC/C=C\C/C=C\C/C=C\CCCCCCCC(=O)OCC
[1]
  Potency: inconclusive: 62.5 µM
[8]
  Potency: inconclusive: 27.9 µM [cytotoxic, full curve]

## COc1ccc(/C=C/C(=O)c2ccc(OC)cc2OC)cc1
[1]
  Potency: inconclusive: 18.8 µM [partial curve]
[8]
  Potency: inconclusive: 33.5 µM [cytotoxic, partial curve]

Reference: PubChem BioAssay (Tox21)
